T1: human CD137-Fc fusion protein (Fc-fusion of the full extracellular domain of human CD137, R&D Systems 838-4B) (human, UniProt Q07011 24-186)
T1 construct: extracellular domain; Bought protein; also called huCD137-Fc; KD huCD137; not shown: Fc of human IgG (captured by an anti-human IgG-Fc antibody)
T1 sequence (looked up): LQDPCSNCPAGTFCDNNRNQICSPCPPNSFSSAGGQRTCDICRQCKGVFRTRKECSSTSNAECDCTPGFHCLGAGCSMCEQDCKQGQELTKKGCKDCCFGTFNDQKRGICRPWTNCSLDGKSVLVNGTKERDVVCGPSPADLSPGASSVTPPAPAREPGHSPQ


Legend:
[1] = biological target: T1, human CD137-Fc fusion protein …; assay: SPR (Biacore T200, 37 C), huCD137-Fc captured via anti-human IgG-Fc antibody, mutein as analyte, 1:1 model
Protocol: Prior to the protein measurements three regeneration cycles were performed for conditioning purposes. Regeneration of the derivatized chip surface was achieved by applying 3M MgCl₂ for 60 s followed by 10 mM glycine, pH 1.7 for 180 s. Anti-human IgG-Fc antibody was utilized to immobilize huCD137-Fc in a subsequent step and taken from the human antibody capture kit (GE Healthcare, BR-1008-39). It was immobilized on a CM5 sensor chip using standard amine coupling chemistry and the immobilization buffer included in the kit (10 mM sodium acetate pH 5.0), resulting in a ligand density of about 13000 resonance units (RU). The reference channel was treated accordingly.
HuCD137-Fc at a concentration of 0.5 μg/mL was captured on this surface for 180 s at a flow rate of 10 μL/min in HBS-EP+ buffer. No target protein was applied to the reference channel. Subsequently, the lipocalin muteins were applied in an appropriate dilution series in HBS-EP+ buffer at a flow rate of 30 μL/min. Regeneration of the derivatized chip surface was achieved as described above. Data were evaluated with Biacore T200 Evaluation software (V 2.0). Double referencing was used and the 1:1 Binding model was used to fit the raw data.

[2] = biological target: T2, human CD137 expressed on cells (human, UniProt Q07011 24-255); assay: FACS on CHO cells stably transfected with human CD137; anti-lipocalin primary and Alexa488 secondary antibody
T2 construct: whole, on cells; also called CHO-huCD137; CHO::hCD137
Protocol: (§1) To perform the experiment, CD137-positive and negative Flp-In CHO cells were incubated with lipocalin muteins, and bound mutein was labeled using anti-lipocalin primary antibodies and fluorescently labeled secondary antibodies, which were detected by FACS analysis as described in the following.
(§2) 1×10⁵ cells per well were pre-incubated for 1 h in ice-cold PBS containing 5% fetal calf serum (PBS-FCS). Subsequently, a dilution series of lipocalin muteins and negative controls typically ranging from 10 μM to 1 nM was added to the cells and incubation was continued on ice for 1 h. Cells were washed twice in ice-cold PBS using centrifugation at 300 g and then incubated with a rabbit anti-lipocalin primary antibody (Pieris, (polyclonal rabbit anti-hNGAL and rabbit anti-hTLC; Pieris) for 30 min on ice. Cells were washed twice in ice-cold PBS, re-suspended in PBS-FCS and incubated 30 min on ice with a secondary anti-rabbit antibody labelled with the fluorescent dye Alexa488 (Life Technologies). Cells were subsequently washed and analyzed using a Guava easyCyte HT Flow cytometer. Typically, a gate was set to exclude non-viable cells and 5.000 events were recorded. Numerical results are expressed as the geometric mean of the fluorescence intensity.

[3] = biological target: T1, human CD137-Fc fusion protein …; assay: SPR, huCD137-Fc captured via anti-human IgG-Fc antibody
Source text: FIG. 1: provides typical measurements of on-rate and off-rate by surface plasmon resonance (SPR) for the interaction of various representative lipocalin muteins (SEQ ID NOs indicated in the graph) with human CD137 (Fc-fusion) as the target. The targets were immobilized via an anti-human IgG-Fc antibody, which was in turn immobilized on a sensor chip using standard amine coupling chemistry. The lipocalin muteins were employed as the soluble analyte which was flowed at different concentrations across the chip surface. […] The dissociation constants resulting from a fit (1:1 binding model) of the depicted data for all SEQ ID NOs are provided in Table 1.
Prior to the protein measurements three regeneration cycles were performed for conditioning purposes. Regeneration of the derivatized chip surface was achieved by applying 3M MgCl₂ for 60 s followed by 10 mM glycine, pH 1.7 for 180 s. Anti-human IgG-Fc antibody was utilized to immobilize huCD137-Fc in a subsequent step and taken from the human antibody capture kit (GE Healthcare, BR-1008-39). […]
HuCD137-Fc at a concentration of 0.5 μg/mL was captured on this surface for 180 s at a flow rate of 10 μL/min in HBS-EP+ buffer. […] Data were evaluated with Biacore T200 Evaluation software (V 2.0). […]

[4] = biological target: T2, human CD137 expressed on cells; assay: FACS on CHO cells stably transfected with human CD137
Protocol: as §1, §2

| Binder | Kd [1] | EC50 [2] | binding result [3] | binding result [4] |
| --- | --- | --- | --- | --- |
| lipocalin mutein of SEQ ID NO: 5 (designed binder, not shown: small tags and cut ends, expressed in E. coli with a C-terminal Strep-tag II; also called Tlc mutein) ASDEEIQDVSGTWYLKAMTVDEGCRPWNIFSVTPMTLTTLEGGNLEAKVTMAIDGPAQEVKAVLEKTDEPGKYTADGGKHVAYIIRSHVKDHYIFYSEGVCDGSPVPGVWLVGRDPKNNLEALEDFEKAAGARGLSTESILIPRQSETSSPG | 162 nM |  |  |  |
| lipocalin mutein of SEQ ID NO: 7 (designed binder, not shown: small tags and cut ends, expressed in E. coli with a C-terminal Strep-tag II; also called Tlc mutein) ASDEEIQDVSGTWYLKAMTVDEGCRPWNIFSVTPMTLTTLEGGNLEAKVTMAIDGPAQEVNAVLEKTDEPGKYTADGGKHVAYIIRSHVRDHYIFYSEGVCDGSPVPGVWLVGRDPENNLEALEDFEKTAGARGLSTESILIPRQSETSSPG | 110 nM | 67.6 nM |  |  |
| lipocalin mutein of SEQ ID NO: 9 (designed binder, not shown: small tags and cut ends, expressed in E. coli with a C-terminal Strep-tag II; also called Tlc mutein) ASDEEIQDVSGTWYLKAMTVDEGCRPWNIFSVTPMTLSTLEGGNLEAKVTMAIDGPAQEVKAVLEKTDEPGKYTADGGKHVAYIIRSHVKDHYIFYSEGVCDGSPVPGVWLVGRDPKNNLEALEDFEKAAGARGLSTESILIPRQIETSSPG | 209 nM | 113 nM |  |  |
| lipocalin mutein of SEQ ID NO: 6 (designed binder, not shown: small tags and cut ends, expressed in E. coli with a C-terminal Strep-tag II; also called Tlc mutein) TSDEEIQDVSGTWYLKAMTVDEGCRPWNIFSVTPMTLTTLEGGNLEAKVTMAIDGPAQEVRAVLEKTDEPGKYTADGGKHDAYIIRSHVKDHYIFYSEGVCDGSPVPGVWLVGRDPENNLEALEDFEKTAGARGLSTESILIPRQSETSSPG | 112 nM | 61.1 nM |  |  |
| lipocalin mutein of SEQ ID NO: 8 (designed binder, not shown: small tags and cut ends, expressed in E. coli with a C-terminal Strep-tag II; also called Tlc mutein) VSDEEIQDVSGTWYLKAMTVDEGCRPWNIFSVTPMTLTTLEGGNLEAKVTMAIDGPAQEVRAVLEKTDEPGKYTADGGKHVAYIIRSHVEDHYIFYSEGVCDGSPVPGVWLVGRDPENNLEALEDFEKTAGARGLSTESILIPRQSETSSPG | 151 nM | 235 nM |  |  |

Next, values leading:

| Kd [1] | EC50 [2] | binding result [3] | binding result [4] | Binder |
| --- | --- | --- | --- | --- |
| 269 nM | 53 nM |  |  | lipocalin mutein of SEQ ID NO: 11 (designed binder, not shown: small tags and cut ends, expressed in E. coli with a C-terminal Strep-tag II; also called Tlc mutein) TSDEEIQDVSGTWYLKAMTVDEGCRPWNIFSVTPMTLTTLEDGNLEAKVTMAIDGPAQEVKAVLEKADEPGKYTADGGKHVAYIIRSHVKDHYIFYSEGVCDGSPVPGVWLVGRDPKNNLEALEDFEKAAGARGLSTESILIPRQIETSSPG |
| 112 nM |  |  |  | lipocalin mutein of SEQ ID NO: 10 (designed binder, not shown: small tags and cut ends, expressed in E. coli with a C-terminal Strep-tag II; also called Tlc mutein) ASDEEIQDVSGTWYLKAMTVDEGCRPWNIFSVTPMTLTTLEGGNLEAEVTMAIDGPAQEVKAVLEKADEPGKYTADGGKHVAYIIRSHVKDHYIFYSEGVCDGSPVPGVWLVGRDPKNNLEALEDFEKTAGARGLSTESILIPSQIETSSPG |
|  |  | no binding | no binding | negative control of SEQ ID NO: 3 (other, Negative control lipocalin) ASDEEIQDVSGTWYLKAMTVDRECPEMNLESVTPMTLTTLEGGNLEAKVTMLISGRSQEVKAVLEKTDEPGKYTADGGKHVAYIIRSHVKDHYIFYSEGECHGKPVPGVWLVGRDPKNNLEALEDFEKAAGARGLSTESILIPRQSETSSPG |
